Results reported in the supplement of paper PMC4604168 (melanoma cell lines).
The list shows a part of the results. Repeats are few or missing, and single values can be far off.

tested on: A375; assay: cell count relative to DMSO control; melanoma cells; higher = more viable cells; conditions: library dose: standard library concentration; 72 h
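Note: cells treated in 1,536-well plates, then fixed and DAPI-stained, with nuclei counted from automated high-throughput microscope images.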

Structure (SMILES)	cell count [%]
CCN(CC)CCNC(=O)c1c(C)[nH]c(/C=C2\C(=O)Nc3ccc(F)cc32)c1C [sunitinib] + Nc1nc(F)nc2c1ncn2[C@@H]1O[C@H](CO)[C@@H](O)[C@@H]1O [fludarabine] (first compound 2 µM, partner dose 1 µM)	33.8
C[C@]1(O)C[C@@H](c2nc(-c3ccc4ccc(-c5ccccc5)nc4c3)c3c(N)nccn32)C1 + CN1CCN(c2ccc3nc(-c4c(N)c5c(F)cccc5[nH]c4=O)[nH]c3c2)CC1 [Dovitinib] (first compound 2 µM, partner dose 0.5 µM)	56.6
COc1cc([C@@H]2c3cc4c(cc3[C@@H](O[C@@H]3O[C@@H]5CO[C@@H](C)O[C@H]5[C@H](O)[C@H]3O)[C@H]3COC(=O)[C@H]23)OCO4)cc(OC)c1O [etoposide] + CCCCCCCCc1ccc(CCC(N)(CO)CO)cc1 [fingolimod] (first compound 0.1 µM, partner dose 10 µM)	76.7
Cn1cnc2c(F)c(Nc3ccc(Br)cc3Cl)c(C(=O)NOCCO)cc21 [selumetinib] + Oc1nc(-c2ccc(C(F)(F)F)cc2)nc2c1CSCC2 [XAV939] (first compound 0.075 µM, partner dose 10 µM)	76.5
C[C@]1(O)C[C@@H](c2nc(-c3ccc4ccc(-c5ccccc5)nc4c3)c3c(N)nccn32)C1 + NC1(c2ccc(-c3nc4ccn5c(=O)[nH]nc5c4cc3-c3ccccc3)cc2)CCC1 [MK2206] (first compound 2 µM, partner dose 2 µM)	92
CCN(CC)CCNC(=O)c1c(C)[nH]c(/C=C2\C(=O)Nc3ccc(F)cc32)c1C [sunitinib] + C[C@@H](Oc1cc(-c2cnn(C3CCNCC3)c2)cnc1N)c1c(Cl)ccc(F)c1Cl [Crizotinib] (first compound 2 µM, partner dose 1 µM)	74.2
CCN(CC)CCNC(=O)c1c(C)[nH]c(/C=C2\C(=O)Nc3ccc(F)cc32)c1C [sunitinib] + C=CCn1c(=O)c2cnc(Nc3ccc(N4CCN(C)CC4)cc3)nc2n1-c1cccc(C(C)(C)O)n1 [MK1775] (first compound 2 µM, partner dose 0.1 µM)	57.6
CCN(CC)CCNC(=O)c1c(C)[nH]c(/C=C2\C(=O)Nc3ccc(F)cc32)c1C [sunitinib] + CO[C@@H]1[C@H](N(C)C(=O)c2ccccc2)C[C@H]2O[C@]1(C)n1c3ccccc3c3c4c(c5c6ccccc6n2c5c31)C(=O)NC4 [Midostaurin] (first compound 2 µM, partner dose 0.4 µM)	71.3
COc1cc([C@@H]2c3cc4c(cc3[C@@H](O[C@@H]3O[C@@H]5CO[C@@H](C)O[C@H]5[C@H](O)[C@H]3O)[C@H]3COC(=O)[C@H]23)OCO4)cc(OC)c1O [etoposide] + CC(C)C[C@H](NC(=O)[C@H](Cc1ccccc1)NC(=O)c1cnccn1)B(O)O [Bortezomib] (first compound 0.1 µM, partner dose 0.005 µM)	88.8
C[C@]1(O)C[C@@H](c2nc(-c3ccc4ccc(-c5ccccc5)nc4c3)c3c(N)nccn32)C1 + CS(=O)(=O)c1ccc(C(=O)Nc2ccc(Cl)c(-c3ccccn3)c2)c(Cl)c1 [vismodegib] (first compound 2 µM, partner dose 5 µM)	94.5
Cn1cnc2c(F)c(Nc3ccc(Br)cc3Cl)c(C(=O)NOCCO)cc21 [selumetinib] + Nc1cccc2c1CN(C1CCC(=O)NC1=O)C2=O [lenalidomide] (first compound 0.075 µM, partner dose 5 µM)	92.9
CCN(CC)CCNC(=O)c1c(C)[nH]c(/C=C2\C(=O)Nc3ccc(F)cc32)c1C [sunitinib] + CCCCCCCCc1ccc(CCC(N)(CO)CO)cc1 [fingolimod] (first compound 2 µM, partner dose 10 µM)	37.9
COc1cc([C@@H]2c3cc4c(cc3[C@@H](O[C@@H]3O[C@@H]5CO[C@@H](C)O[C@H]5[C@H](O)[C@H]3O)[C@H]3COC(=O)[C@H]23)OCO4)cc(OC)c1O [etoposide] + Cn1cncc1[C@@](N)(c1ccc(Cl)cc1)c1ccc2c(c1)c(-c1cccc(Cl)c1)cc(=O)n2C [tipifarnib] (first compound 0.1 µM, partner dose 0.05 µM)	78.4
